Test results from the supplement of paper PMC3334620.
Whole data set: some 33,000 sequences, median “E-score (-0.5 to 0.5)” near -0.054, cut for the highest 2% near 0.35. This is one part of the list.

Each sequence was assayed against T1, Stb5 (UniProt P38699) (assay: PBM E-score (8-mer binding enrichment) (E-score (-0.5 to 0.5)); higher = stronger / more preferred TF binding; most listed sequences are background and not binding sites). Details: protein concentration: 200 nM; construct: GST-full length.
T1 sequence: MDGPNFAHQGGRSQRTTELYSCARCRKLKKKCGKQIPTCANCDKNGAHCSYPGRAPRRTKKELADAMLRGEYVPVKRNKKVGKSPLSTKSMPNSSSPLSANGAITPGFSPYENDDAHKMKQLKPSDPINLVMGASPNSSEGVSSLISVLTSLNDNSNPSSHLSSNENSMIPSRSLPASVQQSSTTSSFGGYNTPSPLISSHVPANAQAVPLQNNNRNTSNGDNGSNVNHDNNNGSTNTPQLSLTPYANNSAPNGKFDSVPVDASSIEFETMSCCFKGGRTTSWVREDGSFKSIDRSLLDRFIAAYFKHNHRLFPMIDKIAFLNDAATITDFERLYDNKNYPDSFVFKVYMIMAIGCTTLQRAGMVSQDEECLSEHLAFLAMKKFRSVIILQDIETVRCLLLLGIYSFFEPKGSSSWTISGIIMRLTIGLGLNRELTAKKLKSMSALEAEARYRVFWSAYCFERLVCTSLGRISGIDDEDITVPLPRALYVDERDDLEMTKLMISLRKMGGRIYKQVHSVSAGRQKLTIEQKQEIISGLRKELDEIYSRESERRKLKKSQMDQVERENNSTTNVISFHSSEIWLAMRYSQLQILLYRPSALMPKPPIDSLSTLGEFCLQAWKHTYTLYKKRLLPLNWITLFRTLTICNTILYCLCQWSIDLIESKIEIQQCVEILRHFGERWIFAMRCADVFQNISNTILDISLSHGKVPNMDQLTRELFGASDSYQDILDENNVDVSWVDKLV
Outline: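 Full-length yeast transcription factors or their DNA-binding domains, GST-tagged and expressed with PURExpress, were applied at about 100-200 nM to universal all-10-mer Agilent arrays. These arrays had been made double-stranded by primer extension on fresh or once-stripped slides. Detection used fluorescent anti-GST, normalisation used masliner, and E-scores for ungapped eight-base words pooled with reverse complements came from the Universal PBM Analysis Suite.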

Sequence | PBM E-score
ATATCTTG | -0.117
GGGCACTA | 0.0684
ACTATAAA | 0.0934
CATAGTCG | -0.0255
CTGGTAGC | -0.218
ACCGGACG | 0.329
AAGAATGC | -0.218
CGTATTGA | -0.013
ACCCTCCG | 0.134
GTGGTAAC | -0.139
AGCGCTTG | -0.015
ATATGGAA | -0.0664
CGTCAAAA | 0.0912
GGCGGTGA | 0.376
ACCTTTAC | -0.102
ACGGCTAA | -0.0965
GCAGTCGA | -0.0782
TAACTTAA | 0.106
CGCGCCCA | 0.0207
TATCAACA | -0.0751
AACAGTGC | -0.0925
GAGACAAA | 0.0115
CTTAATAA | 0.14
GAAATAAC | 0.216
CACGAGTG | -0.21

Sequence | PBM E-score
ACAGAAAG | -0.00441
AGAGTGTC | -0.0617
CTCAAAGA | -0.152
ATATGCAT | -0.0954
GTATAGTA | -0.00023
AGCACATG | -0.193
CAGGTCCC | -0.0877
GGATGCAC | -0.151
GCCGGCAC | 0.334
ATTCGAAA | -0.017
AGTTGGTC | -0.156
GGGGCCAC | 0.0261
CAACAGCG | 0.135
CGGAGGAG | 0.0736
AACGCCCT | -0.24
ACGCTCGG | 0.229
CTTAAGTC | 0.0934
GAGGGACC | -0.108
CAAATCGC | 0.00562
AAAACGAT | -0.265
CAAGGAGA | -0.129
ATTATACA | 0.0217
CCGAACCG | 0.23
AGCGACAT | -0.161
CGCAATAA | 0.213

Sequence | PBM E-score
CATAACGA | -0.00123
TAGTGCAA | -0.157
CTTGCGGA | 0.144
ATGTGTGC | -0.0139
ATCTAAGA | -0.138
ACGTAACA | -0.0542
AAGGGAAC | -0.11
ACGGCCGT | 0.226
GGACCGAA | 0.184
ATGACAGA | -0.202
ATTACAGG | 0.191
ACATATAA | 0.199
AACTACGT | -0.0171
GTTAGCCA | 0.0305
TGATGAAA | -0.29
GCAGGAAA | -0.0516
CGAAGAAC | -0.0324
AATTAGTA | -0.0825
AGTCTCTA | -0.346
CCGGTAGC | 0.195
CTCAGTTA | 0.0258
CTCTCTCC | -0.133
CGGTCGAG | -0.063
GTGCGAGA | -0.195
CTCCCTGC | -0.209

Sequence | PBM E-score
ATTGCACG | 0.00253
ACACCTCG | 0.0552
GAGGACGA | -0.163
TGAGACAA | -0.0999
AAGGCACT | -0.126
ATGCGGTG | 0.283
CCTTGAAA | -0.117
GAACCATA | 0.0655
ATAAGCAA | -0.156
TGAGTACA | -0.126
CCCTATGA | -0.0317
CCATTGCG | 0.116
TCATTGGA | -0.116
CTCATTAA | -0.134
TACAACTA | -0.155
AGCAGCAC | -0.34
ATGAAACA | -0.0687
CTGTCGTC | -0.199
AGGGGTCG | -0.178
CTGCTGAA | -0.298
GACCAGCC | 0.00138
AACACTAT | -0.0598
AGTGTCAC | -0.0789
AGAGTAAG | -0.182
CCGTGCAA | 0.168

Sequence | PBM E-score
GGATGACC | -0.0273
CTTCAAAA | -0.214
CAGTCAGC | -0.0989
AAAATGGA | 0.00203
GAATCGAA | -0.175
ACTCAATA | -0.108
CATGTACG | -0.0511
GCAATAAC | 0.131
GACCGACA | 0.341
GCTTTATA | 0.129
AATAGGAC | -0.0226
AATCGTAC | -0.0685
ATAGTATA | 0.0619
CAGCGTTC | -0.0601
AATGTATA | -0.00655
GCATGGAA | 0.139
ACTACTCT | -0.174
GACCGAGC | 0.12
ACTGGACA | -0.0751
ACGTGACA | -0.282
AGAAACCT | -0.00738
ACACCGAA | 0.386
GTCCGTCA | 0.266
AGCGTCTA | -0.14
AAGTGACT | -0.193

Sequence | PBM E-score
CCTGGTGA | -0.138
CAATCTCC | 0.218
AACCCGAC | 0.347
AGCCCAAA | 0.106
GGCGCAAA | 0.177
CCCGCCAA | 0.257
GCCAGAGC | -0.199
CGGGCGGC | 0.308
ACAGCAGT | -0.25
CGTGGGTC | -0.152
AGAGGGAC | -0.314
ATGTTTCC | 0.0736
AAACTCAA | -0.143
CGAAGCGA | -0.0307
CCCAATGC | -0.214
CCCTGGTC | -0.293
ACCTGAAT | -0.133
GTAATTTA | 0.0378
GCGCGGAC | 0.292
CGTTTTAA | 0.046
ACCAAAGG | -0.0701
CTAACTCA | -0.0296
ATCGAACA | -0.0252
CTAGATTC | -0.168
CGGATGGC | 0.1

Sequence | PBM E-score
GCGTTCGA | -0.0361
ACATTTTA | -0.0834
ACTCCACA | -0.262
ATTCGGGC | 0.155
CTACTCAC | -0.129
AACGGTTG | -0.122
GAGTATAA | 0.115
TCCCTAAA | -0.0585
AGACGGAA | 0.218
ACGAATTA | -0.0884
AAAGTGAA | -0.155
GGCTGGTA | -0.102
CCGATTCC | 0.267
AGGTGCAG | -0.16
CCATCGGG | 0.262
AGTTGTGC | -0.214
ATACTGGC | -0.207
AACGTGGT | -0.126
GATCCACC | -0.0814
AGAGCCCA | -0.22
GAATTCTC | 0.0968
GCTCATAC | 0.0142
